Results on 20 molecules are retold here after PMC9911399, “Two distinct binding modes provide the RNA-binding protein RbFox with extraordinary sequence specificity”.

Where a chain is given by its changes, count along the chain named. The list shows a part of the results.

B1: CGCCAUC (DNA:RNA)
RNA: GGGAGACCGGAAUUCAGAUUGUCCCGCCAUCUUAAAUCCCGUCGUAGCCACCA
DNA 1: CAATCTGAATTCCGGTCTCCC
DNA 2: TGGTGGCTACGACGGGATT
B2: AGUCGAA (DNA:RNA)
RNA: B1 RNA with C25A, C27U, A29G, U30A, C31A
DNA 1: CAATCTGAATTCCGGTCTCCC
DNA 2: TGGTGGCTACGACGGGATT
B3: UAGCCGA (DNA:RNA)
RNA: B1 RNA with C25U, G26A, C27G, A29C, U30G, C31A
DNA 1: CAATCTGAATTCCGGTCTCCC
DNA 2: TGGTGGCTACGACGGGATT
B4: ACUCAGC (DNA:RNA)
RNA: B1 RNA with C25A, G26C, C27U, U30G
DNA 1: CAATCTGAATTCCGGTCTCCC
DNA 2: TGGTGGCTACGACGGGATT
B5: CCUUGAG (DNA:RNA)
RNA: B1 RNA with G26C, C27U, C28U, A29G, U30A, C31G
DNA 1: CAATCTGAATTCCGGTCTCCC
DNA 2: TGGTGGCTACGACGGGATT
B6: GGGGCAG (DNA:RNA)
RNA: B1 RNA with C25G, C27G, C28G, A29C, U30A, C31G
DNA 1: CAATCTGAATTCCGGTCTCCC
DNA 2: TGGTGGCTACGACGGGATT
B7: GGUAAAU (DNA:RNA)
RNA: B1 RNA with C25G, C27U, C28A, U30A, C31U
DNA 1: CAATCTGAATTCCGGTCTCCC
DNA 2: TGGTGGCTACGACGGGATT
B8: CGCGUGA (DNA:RNA)
RNA: B1 RNA with C28G, A29U, U30G, C31A
DNA 1: CAATCTGAATTCCGGTCTCCC
DNA 2: TGGTGGCTACGACGGGATT
B9: UAGACAG (DNA:RNA)
RNA: GGGAGACCGGAAUUCAGAUUGUCCUAGACAGUUAAAUCCCGUCGUAGCCACCA
DNA 1: CAATCTGAATTCCGGTCTCCC
DNA 2: TGGTGGCTACGACGGGATT
B10: CGCGAGG (DNA:RNA)
RNA: B1 RNA with C28G, U30G, C31G
DNA 1: CAATCTGAATTCCGGTCTCCC
DNA 2: TGGTGGCTACGACGGGATT
B11: GCUCAAC (DNA:RNA)
RNA: B1 RNA with C25G, G26C, C27U, U30A
DNA 1: CAATCTGAATTCCGGTCTCCC
DNA 2: TGGTGGCTACGACGGGATT
B12: GCGGCAC (DNA:RNA)
RNA: B9 RNA with U25G, A26C, A28G, G31C
DNA 1: CAATCTGAATTCCGGTCTCCC
DNA 2: TGGTGGCTACGACGGGATT
B13: GAUUGAC (DNA:RNA)
RNA: B9 RNA with U25G, G27U, A28U, C29G, G31C
DNA 1: CAATCTGAATTCCGGTCTCCC
DNA 2: TGGTGGCTACGACGGGATT
B14: GUCGCCU (DNA:RNA)
RNA: B1 RNA with C25G, G26U, C28G, A29C, U30C, C31U
DNA 1: CAATCTGAATTCCGGTCTCCC
DNA 2: TGGTGGCTACGACGGGATT
B15: CUCUUAC (DNA:RNA)
RNA: B1 RNA with G26U, C28U, A29U, U30A
DNA 1: CAATCTGAATTCCGGTCTCCC
DNA 2: TGGTGGCTACGACGGGATT
B16: UGUCUGC (DNA:RNA)
RNA: B1 RNA with C25U, C27U, A29U, U30G
DNA 1: CAATCTGAATTCCGGTCTCCC
DNA 2: TGGTGGCTACGACGGGATT
B17: AAUUUUU (DNA:RNA)
RNA: B1 RNA with C25A, G26A, C27U, C28U, A29U, C31U
DNA 1: CAATCTGAATTCCGGTCTCCC
DNA 2: TGGTGGCTACGACGGGATT
B18: AGCAUUG (DNA:RNA)
RNA: B1 RNA with C25A, C28A, A29U, C31G
DNA 1: CAATCTGAATTCCGGTCTCCC
DNA 2: TGGTGGCTACGACGGGATT
B19: ACCACCG (DNA:RNA)
RNA: B9 RNA with U25A, A26C, G27C, A30C
DNA 1: CAATCTGAATTCCGGTCTCCC
DNA 2: TGGTGGCTACGACGGGATT
B20: UUUGGGU (DNA:RNA)
RNA: B9 RNA with A26U, G27U, A28G, C29G, A30G, G31U
DNA 1: CAATCTGAATTCCGGTCTCCC
DNA 2: TGGTGGCTACGACGGGATT

The target of the experiment is T1, RBFOX1 RRM (Homo sapiens, UniProt Q9NWB1 109-208).
T1 sequence: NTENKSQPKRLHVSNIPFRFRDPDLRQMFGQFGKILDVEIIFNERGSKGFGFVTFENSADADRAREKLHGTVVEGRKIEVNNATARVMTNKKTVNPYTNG
Description: EMSA; HiTS-Eq, 1 nM pool, 10 min; buffer printed only for the single-RNA assays: 10 mM Tris pH 7.5, 150 mM NaCl, 3.4 mM EDTA, 0.001% NP-40, 30 C. Conditions: tags: His6 N-terminal (pET28a); label: 5' 32P. Summed up:
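These values rest on relative association constants, computed from read-count changes of each RNA species versus the control reaction and normalised to the cognate motif. Reads came from free RNA recovered by 8% native PAGE after purified RbFox RRM (wild type or mutant) at increasing concentrations was equilibrated for 10 min in 50 µL with 1 nM of a 5′-radiolabelled pool with 7 randomized nucleotides and DNA-annealed flanks.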
In the case of B1, the binding signal is 0.00464 KA relative to UGCAUGU.
Consider B2, for which the binding signal is 0.0116 KA relative to UGCAUGU.
Under B3 stands 0.0102 KA relative to UGCAUGU; under B4, 0.00534 KA relative to UGCAUGU.
As for B5, the binding signal was 0.0151 KA relative to UGCAUGU.
As for B6, the binding signal is 0.0491 KA relative to UGCAUGU.
Turning to B7, the binding signal is 0.0054 KA relative to UGCAUGU.
For B8 the value was 0.02 KA relative to UGCAUGU; for B9, 0.00818 KA relative to UGCAUGU.
For B10 the value was 0.00998 KA relative to UGCAUGU; for B11, 0.00455 KA relative to UGCAUGU.
For B12, the binding signal was 0.0212 KA relative to UGCAUGU.
With B13, the binding signal is 0.0228 KA relative to UGCAUGU.
Under B14 stands 0.0142 KA relative to UGCAUGU; under B15, 0.00497 KA relative to UGCAUGU.
On to B16, for which the binding signal was 0.0316 KA relative to UGCAUGU.
B17: the binding signal was 0.0102 KA relative to UGCAUGU.
With B18, the binding signal is 0.0104 KA relative to UGCAUGU.
For B19 the value was 0.000765 KA relative to UGCAUGU.
For B20 the value was 0.00647 KA relative to UGCAUGU.
